# From the supplement of paper PMC8728848
# This is one part of the list.
# B1: LecB PA14 (Pseudomonas aeruginosa) (protein)
# chain: MATQGVFTLPANTQFGVTAFANSAGTQTVNVQVNNETVATFTGQSTNNAIIGSKVLNSGGGGKVQILVSVNGRSSDLVSAQVILANELNFALVGSEDSTDNDYNDAVVVINWPLG
# How the values were obtained:
# Assay in all cases: glycan array binding signal (z-score within array); higher = stronger binding
# Details in all cases: glycan notation: IUPAC condensed, linker removed
# [1] = target: Neu5Ac(a2-3)Gal(b1-3)GlcNAc6S
# In short: (§1)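 From the Consortium for Functional Glycomics database, 3228 arrays were curated, keeping only those whose protein sequence was available. Binding is given as a within-array Z-score averaged across arrays sharing a protein sequence and across linkers. Negative Z-scores can be read as non-binding.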
# [2] = target: Neu5Ac(a2-3)Gal(b1-3)[Fuc(a1-4)]GlcNAc
# In short: as §1
# [3] = target: Neu5Ac(a2-3)Gal(b1-3)[Fuc(a1-4)]GlcNAc(b1-3)Gal(b1-3)[Fuc(a1-4)]GlcNAc
# In short: as §1
# [4] = target: Neu5Ac(a2-3)Gal(b1-3)[Fuc(a1-4)]GlcNAc(b1-3)Gal(b1-4)[Fuc(a1-3)]GlcNAc
# In short: as §1
# [5] = target: Neu5Ac(a2-3)Gal(b1-3)[GlcNAc(b1-6)]GalNAc
# In short: as §1
# [6] = target: Neu5Ac(a2-3)Gal(b1-3)[Neu5Ac(a2-6)]GalNAc
# In short: as §1
# [7] = target: Neu5Ac(a2-3)Gal(b1-3)[Neu5Ac(a2-6)]GlcNAc(b1-3)[Fuc(a1-3)[Gal(b1-4)]GlcNAc(b1-6)]Gal(b1-4)Glc
# In short: as §1
# [8] = target: Neu5Ac(a2-3)Gal(b1-3)]Neu5Ac(a2-3)Gal(b1-4)]GlcNAc
# In short: as §1
# Neu5Ac(a2-3)Gal(b1-4)Glc = target: Neu5Ac(a2-3)Gal(b1-4)Glc
# In short: as §1
# [9] = target: Neu5Ac(a2-3)Gal(b1-4)GlcNAc
# In short: as §1
# [10] = target: Neu5Ac(a2-3)Gal(b1-4)GlcNAc(b1-2)Man
# In short: as §1
# [11] = target: Neu5Ac(a2-3)Gal(b1-4)GlcNAc(b1-2)Man(a1-3)[GlcNAc(b1-4)][Neu5Ac(a2-3)Gal(b1-4)GlcNAc(b1-2)Man(a1-6)]Man(b1-4)GlcNAc(b1-4)GlcNAc
# In short: as §1
# [12] = target: Neu5Ac(a2-3)Gal(b1-4)GlcNAc(b1-2)Man(a1-3)[Neu5Ac(a2-3)Gal(b1-4)GlcNAc(b1-2)Man(a1-6)]Man(b1-4)GlcNAc(b1-4)GlcNAc
# In short: as §1
# [13] = target: Neu5Ac(a2-3)Gal(b1-4)GlcNAc(b1-2)Man(a1-3)[Neu5Ac(a2-3)Gal(b1-4)GlcNAc(b1-2)Man(a1-6)]Man(b1-4)GlcNAc(b1-4)[Fuc(a1-6)]GlcNAc
# In short: as §1
# [14] = target: Neu5Ac(a2-3)Gal(b1-4)GlcNAc(b1-2)Man(a1-3)[Neu5Ac(a2-6)Gal(b1-4)GlcNAc(b1-2)Man(a1-6)]Man(b1-4)GlcNAc(b1-4)GlcNAc
# In short: as §1
# [15] = target: Neu5Ac(a2-3)Gal(b1-4)GlcNAc(b1-2)[Neu5Ac(a2-3)Gal(b1-4)GlcNAc(b1-4)]Man(a1-3)[GlcNAc(b1-4)][Neu5Ac(a2-3)Gal(b1-4)GlcNAc(b1-2)[Neu5Ac(a2-3)Gal(b1-4)GlcNAc(b1-6)]Man(a1-6)]Man(b1-4)GlcNAc(b1-4)GlcNAc
# In short: as §1
# [16] = target: Neu5Ac(a2-3)Gal(b1-4)GlcNAc(b1-2)[Neu5Ac(a2-3)Gal(b1-4)GlcNAc(b1-4)]Man(a1-3)[GlcNAc(b1-4)][Neu5Ac(a2-3)Gal(b1-4)GlcNAc(b1-4)Man(a1-6)]Man(b1-4)GlcNAc(b1-4)GlcNAc
# In short: as §1
# [17] = target: Neu5Ac(a2-3)Gal(b1-4)GlcNAc(b1-2)[Neu5Ac(a2-3)Gal(b1-4)GlcNAc(b1-6)]Man(a1-6)[Neu5Ac(a2-3)Gal(b1-4)GlcNAc(b1-2)Man(a1-3)][GlcNAc(b1-4)]Man(b1-4)GlcNAc(b1-4)GlcNAc
# In short: as §1
# [18] = target: Neu5Ac(a2-3)Gal(b1-4)GlcNAc(b1-3)Gal
# In short: as §1
# [19] = target: Neu5Ac(a2-3)Gal(b1-4)GlcNAc(b1-3)Gal(b1-3)GlcNAc
# In short: as §1
# [20] = target: Neu5Ac(a2-3)Gal(b1-4)GlcNAc(b1-3)Gal(b1-4)GlcNAc
# In short: as §1
# [21] = target: Neu5Ac(a2-3)Gal(b1-4)GlcNAc(b1-3)Gal(b1-4)GlcNAc(b1-2)Man(a1-3)[Neu5Ac(a2-3)Gal(b1-4)GlcNAc(b1-3)Gal(b1-4)GlcNAc(b1-2)Man(a1-6)]Man(b1-4)GlcNAc(b1-4)GlcNAc
# In short: as §1
# [22] = target: Neu5Ac(a2-3)Gal(b1-4)GlcNAc(b1-3)Gal(b1-4)GlcNAc(b1-3)Gal(b1-4)GlcNAc
# In short: as §1
# [23] = target: Neu5Ac(a2-3)Gal(b1-4)GlcNAc(b1-3)Gal(b1-4)GlcNAc(b1-3)Gal(b1-4)GlcNAc(b1-2)Man(a1-3)[Neu5Ac(a2-3)Gal(b1-4)GlcNAc(b1-3)Gal(b1-4)GlcNAc(b1-3)Gal(b1-4)GlcNAc(b1-2)Man(a1-6)]GalNAc
# In short: as §1
# [24] = target: Neu5Ac(a2-3)Gal(b1-4)GlcNAc(b1-3)Gal(b1-4)GlcNAc(b1-3)GalNAc
# In short: as §1
# [25] = target: Neu5Ac(a2-3)Gal(b1-4)GlcNAc(b1-3)Gal(b1-4)GlcNAc(b1-3)[Neu5Ac(a2-3)Gal(b1-4)GlcNAc(b1-3)Gal(b1-4)GlcNAc(b1-6)]GalNAc
# In short: as §1
# [26] = target: Neu5Ac(a2-3)Gal(b1-4)GlcNAc(b1-3)Gal(b1-4)GlcNAc(b1-6)[Gal(b1-3)]GalNAc
# In short: as §1
# [27] = target: Neu5Ac(a2-3)Gal(b1-4)GlcNAc(b1-3)Gal(b1-4)[Fuc(a1-3)]GlcNAc
# In short: as §1
# [28] = target: Neu5Ac(a2-3)Gal(b1-4)GlcNAc(b1-3)GalNAc
# In short: as §1
# [29] = target: Neu5Ac(a2-3)Gal(b1-4)GlcNAc(b1-3)[Neu5Ac(a2-3)Gal(b1-4)GlcNAc(b1-6)]GalNAc
# In short: as §1
# [30] = target: Neu5Ac(a2-3)Gal(b1-4)GlcNAc(b1-6)GalNAc
# In short: as §1
# [31] = target: Neu5Ac(a2-3)Gal(b1-4)GlcNAc(b1-6)[Gal(b1-3)]GalNAc
# In short: as §1
# [32] = target: Neu5Ac(a2-3)Gal(b1-4)GlcNAc(b1-6)[Neu5Ac(a2-3)Gal(b1-3)]GalNAc
# In short: as §1
# [33] = target: Neu5Ac(a2-3)Gal(b1-4)GlcNAc6S
# In short: as §1
# [34] = target: Neu5Ac(a2-3)Gal(b1-4)[Fuc(a1-3)]GlcNAc
# In short: as §1
# [35] = target: Neu5Ac(a2-3)Gal(b1-4)[Fuc(a1-3)]GlcNAc(b1-2)Man
# In short: as §1
# [36] = target: Neu5Ac(a2-3)Gal(b1-4)[Fuc(a1-3)]GlcNAc(b1-3)Gal
# In short: as §1
# [37] = target: Neu5Ac(a2-3)Gal(b1-4)[Fuc(a1-3)]GlcNAc(b1-3)Gal(b1-4)GlcNAc
# In short: as §1
# [38] = target: Neu5Ac(a2-3)Gal(b1-4)[Fuc(a1-3)]GlcNAc(b1-3)Gal(b1-4)[Fuc(a1-3)]GlcNAc(b1-3)Gal(b1-4)[Fuc(a1-3)]GlcNAc
# In short: as §1
# [39] = target: Neu5Ac(a2-3)Gal(b1-4)[Fuc(a1-3)]GlcNAc(b1-3)GalNAc
# In short: as §1
# [40] = target: Neu5Ac(a2-3)Gal(b1-4)[Fuc(a1-3)]GlcNAc(b1-6)[Gal(b1-3)]GalNAc
# In short: as §1
# [41] = target: Neu5Ac(a2-3)Gal(b1-4)[Fuc(a1-3)]GlcNAc(b1-6)[Neu5Ac(a2-3)Gal(b1-3)]GalNAc
# In short: as §1
# [42] = target: Neu5Ac(a2-3)Gal(b1-4)[Fuc(a1-3)]GlcNAc6S
# In short: as §1
# [43] = target: Neu5Ac(a2-3)Gal6S(b1-4)GlcNAc
# In short: as §1
# [44] = target: Neu5Ac(a2-3)Gal6S(b1-4)[Fuc(a1-3)]GlcNAc
# In short: as §1
binder,measurement,setting,value
B1,glycan array binding signal (z-score),[1],-0.181
same,glycan array binding signal (z-score),[2],2.44
same,glycan array binding signal (z-score),[3],3.3
same,glycan array binding signal (z-score),[4],1.72
same,glycan array binding signal (z-score),[5],-0.817
same,glycan array binding signal (z-score),[6],-0.618
same,glycan array binding signal (z-score),[7],-0.249
same,glycan array binding signal (z-score),[8],0.029
same,glycan array binding signal (z-score),Neu5Ac(a2-3)Gal(b1-4)Glc,-0.458
same,glycan array binding signal (z-score),[9],-0.56
same,glycan array binding signal (z-score),[10],-0.409
same,glycan array binding signal (z-score),[11],-0.447
same,glycan array binding signal (z-score),[12],-0.749
same,glycan array binding signal (z-score),[13],-0.276
same,glycan array binding signal (z-score),[14],2.48
same,glycan array binding signal (z-score),[15],0.358
same,glycan array binding signal (z-score),[16],-0.551
same,glycan array binding signal (z-score),[17],-0.506
same,glycan array binding signal (z-score),[18],-0.718
same,glycan array binding signal (z-score),[19],-0.354
same,glycan array binding signal (z-score),[20],-0.721
same,glycan array binding signal (z-score),[21],-0.475
same,glycan array binding signal (z-score),[22],-0.643
same,glycan array binding signal (z-score),[23],-0.275
same,glycan array binding signal (z-score),[24],-0.535
same,glycan array binding signal (z-score),[25],-0.427
same,glycan array binding signal (z-score),[26],-0.385
same,glycan array binding signal (z-score),[27],-0.854
same,glycan array binding signal (z-score),[28],-0.353
same,glycan array binding signal (z-score),[29],-0.521
same,glycan array binding signal (z-score),[30],0.011
same,glycan array binding signal (z-score),[31],0.148
same,glycan array binding signal (z-score),[32],-0.723
same,glycan array binding signal (z-score),[33],-0.693
same,glycan array binding signal (z-score),[34],-0.158
same,glycan array binding signal (z-score),[35],0.26
same,glycan array binding signal (z-score),[36],0.275
same,glycan array binding signal (z-score),[37],0.709
same,glycan array binding signal (z-score),[38],2.09
same,glycan array binding signal (z-score),[39],-0.174
same,glycan array binding signal (z-score),[40],0.201
same,glycan array binding signal (z-score),[41],-0.054
same,glycan array binding signal (z-score),[42],0.335
same,glycan array binding signal (z-score),[43],-0.313
same,glycan array binding signal (z-score),[44],-0.517
